# PubChem BioAssay AID2546 (National Center for Advancing Translational Sciences (NCATS), 2010)
# The campaign covered roughly 310,000 compounds. About 11,000 (3.5%) were called active. This list was built around the results that the source calls inconclusive (neither active nor inactive); the mix of calls is not that of the screen. Calls follow the shape of the dose curve; as a rule, active = well fitted inhibition curve with a large enough effect; inconclusive = small, poorly fitted or top-dose-only effect, or effect the other way; inactive = flat fitted curve, though single readings scatter. No potency is given beside an inconclusive call; the fits are too rough.
# Experiment: VP16 counterscreen qHTS for inhibitors of ROR gamma transcriptional activity;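 also: Gal4-VP16 expression switched on by copper sulfate through the metallothionein promoter; nearly all actives have a fitted effect of over 50% in size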
# Settings: Drosophila S2 Gal4-VP16 UAS-luciferase, luminescence, 20 h; activity, negative = inhibition: at 53.6 µM (top of the series)
# % is scaled to controls: 0 for no effect and ±100 for the full control effect; potency is read from the fitted curve at half-maximal effect; tags tell the direction and shape of the fitted curve.
SMILES,Potency,"activity, negative = inhibition"
COc1ccccc1NC(=O)C1CCN(C(=O)c2ccc(C(C)(C)C)cc2)CC1,"inconclusive [activator, full curve]",
CCNc1nc2cccnc2s1,"inconclusive [activator, single point]",
COc1ccc(-c2nc3cnc(Nc4cccc(OC)c4)nc3n(C)c2=O)cc1,"inconclusive [inhibitor, single point]",
CCC1(C)Cc2c(sc3[nH]c(=S)n(Cc4ccccc4)c(=O)c23)CO1 (stereo not given),active: 1.26 µM,
Cc1cc(C)c(C#N)c(SCc2cn3c(C)cccc3n2)n1,"inconclusive [inhibitor, single point]",
Cc1sc(C(C2C(=O)CC(C)(C)CC2=O)C2C(=O)CC(C)(C)CC2=O)cc1[N+](=O)[O-],"inconclusive [inhibitor, single point]",
O=C(Nc1nc2ccc(Cl)cc2s1)c1ccco1,"inconclusive [inhibitor, single point]",
CCn1c2ccccc2c2nnc(SCc3ccccc3)nc21,"inconclusive [inhibitor, single point]",
COc1ccc(NC(=S)N(CCc2c(C)[nH]c3ccc(C)cc23)Cc2cccnc2)cc1,inactive,
CCCC(=O)N(c1ccc2oc(C)c(C(C)=O)c2c1)S(=O)(=O)c1ccc(C)c([N+](=O)[O-])c1,"inconclusive [inhibitor, single point]",
COc1ccc(S(=O)(=O)N2CCN(c3ccc(C)cc3C)CC2)cc1OC,"inconclusive [inhibitor, single point]",
O=C(Oc1cccnc1)c1ccc(Cl)c(Cl)c1,"inconclusive [inhibitor, single point]",
COCCC1CCCCN1C(=O)c1cc(COc2ccc(C)nc2)on1 (stereo not given),"inconclusive [inhibitor, single point]",
O=C(O)c1ccc(N/N=C/C=C/c2ccccc2)cc1,active: 1.12 µM,
Cc1cc(=O)c2c(O)c3c(O)cc(=O)c4c3c3c(cc(O)c1c23)C(C)(C)C=4O,active: 3.98 µM,
C=CCOc1c2ccc(C(=O)NCc3ccccc3OC)cc2nn1C,"inconclusive [inhibitor, single point]",
CCNC(=S)N/N=C/c1ccc(OCCOc2ccccc2C)cc1,active: 10 µM,
CC(=O)N1CCN(c2ccc(NC(=O)c3ccc(C)c([N+](=O)[O-])c3)cc2)CC1,inactive,
COc1cccc2c1OCC(C(=O)Nc1nccs1)=C2,"inconclusive [inhibitor, single point]",
CC(C)(C)c1ccc(-c2cn(-c3ccc(Br)cc3)c3[n+]2CCCS3)cc1,active: 7.94 µM,
COc1ccc(C2(c3ccc(OC)cc3)NC(=O)N(CC(=O)N(C)c3ccccc3)C2=O)cc1,"inconclusive [activator, full curve, poor fit]",
CC12CCC=CC1C(c1ccc3ccccc3c1)N(Cc1ccccc1)C2=O (stereo not given),inactive,
CCCCSc1nc(C)cc(C)c1S(=O)(=O)c1ccccc1C,"inconclusive [inhibitor, single point]",
Cc1ccc(S(=O)(=O)N2CCOC23CCN(C(=O)c2ccc(Cl)cc2Cl)CC3)cc1,inactive,
COc1cccc2nc3cc(C)c(C)cc3nc12,"inconclusive [inhibitor, single point]",

SMILES,Potency,"activity, negative = inhibition"
O=C(Nc1ccc2c(c1)OCO2)C1CC(c2ccccc2O)=NO1 (stereo not given),"inconclusive [inhibitor, single point]",
Cc1cc(C)c2nc(-c3ccccn3)cc(C(=O)NCCc3ccc(S(N)(=O)=O)cc3)c2c1,"inconclusive [inhibitor, single point]",
COc1ccccc1/C=C\C=N\NC(=O)c1ccco1,"inconclusive [inhibitor, single point]",
Cc1[nH]c2ccccc2c1/C=C/C(=O)c1ccncc1,inactive,
Cc1cccc(N2CC(O)(c3cccs3)[N+]3=C2CCCC3)c1C (stereo not given),active: 35.5 µM,
N#C/C(=C/c1ccc(-c2ccccc2)o1)c1nc(-c2cccs2)cs1,active: 0.1 µM,
C=C1CC(C(=O)N/N=C/c2ccc(O)cc2)C1,inactive,
CCCC(=O)NC(c1ccco1)c1cc([N+](=O)[O-])c2cccnc2c1O (stereo not given),active: 5.01 µM,
O=[N+]([O-])c1ccc(C(=S)N2CCCC2)cc1,inactive,
COc1ccc(S(=O)(=O)Nc2ccccc2C(=O)Nc2nc(-c3ccc(F)cc3)cs2)cc1OC,"inconclusive [inhibitor, partial curve]",
O=C(Nc1nnc(Cc2ccccc2)s1)c1cccs1,"inconclusive [inhibitor, single point]",
N#Cc1c(Nc2ccccc2Cl)s[nH]c1=O,active: 3.16 µM,
Cc1ccsc1-c1n[nH]c(=S)n1CC(C)C,active: 6.31 µM,
N/C(=N\c1nc2ccccc2o1)NC(=O)c1ccc(F)cc1,active: 5.62 µM,
Cc1ccc(NC(=O)c2nc[nH]c2C(=O)NCC(=O)OC(C)(C)C)cc1,"inconclusive [inhibitor, single point]",
Cc1cccc2sc(N(CCCN(C)C)C(=O)c3ccc(S(=O)(=O)N4CCc5ccccc5C4)cc3)nc12,active: 11.2 µM,
Cc1[nH]c(=O)[nH]c(=O)c1NC(=O)CSc1ncccc1-c1nc2ccccc2[nH]1,inactive,
CCC(c1nc2ccccc2c(=O)n1-c1nc2ccccc2s1)N1C(=O)c2ccccc2C1=O (stereo not given),"inconclusive [activator, single point]",
Cn1cccc1C(=O)N1CCC[C@@]2(CCN(c3ccncc3)C2)C1,inactive,
COC(=O)C1=C[C@@H](C(=O)OC)[C@@H]2C3=C(C(=O)[C@@]2(C)NC(=O)c2ccccc2)[C@H](C)[C@@H]2C(=O)N(Cc4ccccc4)C(=O)[C@@H]2[C@@H]3C1,inactive,
CCn1ccnc1CN(C)Cc1cn(-c2ccccc2)nc1-c1ccc(OC)cc1F,"inconclusive [inhibitor, single point]",
CC(C)(C)c1ccccc1OCCCCCn1ccnc1,"inconclusive [inhibitor, single point]",
Cc1ccc(C)c(NCC(=O)c2ccc(Cl)cc2)c1,"inconclusive [inhibitor, single point]",
CCCc1ccc(C2=Nn3c(nnc3C(C)C)SC2)cc1,inactive,
CCc1ccccc1OCC(=O)Nc1ccc2c(c1)OCCO2,"inconclusive [inhibitor, single point]",

SMILES,Potency,"activity, negative = inhibition"
CCOc1ccc(NC(=O)CSc2ncn[nH]2)cc1,"inconclusive [inhibitor, partial curve]",
CCOC(=O)Cn1nnc(-c2ccc(OCC(C)C)cc2)n1,inactive,
Cc1nn(-c2ccccc2)c(C)c1[N+](=O)[O-],inactive,
O=C(c1cccc(F)c1)N1CCCc2ccccc21,inactive,
CCOc1ccc(CN(C)CC(=O)Nc2cccc(C)c2)cc1OC,"inconclusive [inhibitor, single point]",
Cc1ccc(OCCN2C(=O)c3ccccc3C2=O)cc1,"inconclusive [inhibitor, single point]",
O=C(CC1SC(=O)N(Cc2ccccc2Cl)C1=O)Nc1nccs1 (stereo not given),inactive,
Cc1nnc(NC(=O)c2ccccc2-c2ccccc2C(=O)O)s1,inactive,
O=[N+]([O-])c1ccc(C(O)C[n+]2ccccc2)cc1 (stereo not given),inactive,
CCOC(=O)C(C(=O)N(C)C)c1ncc(C(F)(F)F)cc1Cl (stereo not given),inactive,
Cc1csc(NC(=O)c2sccc2C)n1,"inconclusive [inhibitor, single point]",
O=S(=O)(NC1CC1)c1ccc(S(=O)(=O)N2CCc3ccccc32)cc1,"inconclusive [inhibitor, partial curve]",
CCCOc1cc(N)ccc1C(=O)OCCN(CC)CC,inactive,
C/C(CC(=O)Nc1cccc(Cl)c1Cl)=N\NC(=O)c1ccccc1Br,"inconclusive [inhibitor, single point]",
COc1cc(C(=O)NC2CCCc3ccccc32)ccc1OCC(=O)Nc1ccc(F)cc1 (stereo not given),"inconclusive [inhibitor, single point]",
CSCCC(NC(=O)COc1ccccc1)C(=O)N1CCCC(C)C1 (stereo not given),inactive,
Cc1occc1C(=O)NNS(=O)(=O)c1ccc(Cl)cc1,"inconclusive [inhibitor, partial curve]",
CCOC(=O)c1c(C)[nH]c(C2=NNC(=NC3CC3)SC2)c1C,"inconclusive [inhibitor, partial curve]",
COc1ccc(NC(=O)/C(Cl)=C(/Cl)S(=O)(=O)Cc2ccccc2)cn1,active: 3.16 µM,
N#CC1=C(N)C2=CCCC[C@H]2[C@H](c2cccc(F)c2)C1(C#N)C#N,"inconclusive [inhibitor, single point]",
C/C(CC(=O)Nc1ccccn1)=N\NC(=O)c1ccccc1O,"inconclusive [inhibitor, single point]",
C#CCCCO/N=C1/C[C@@H](O)[C@@H](O)[C@@H]2[C@@H]3C(=O)N(CCC(=O)OCC)C(=O)[C@H]3CC[C@@H]12,,inactive: 7.87% [at 10 µM]
CC(=O)N[C@@H](C)C(=O)N1CCC(n2nccc2NC(=O)CCCc2ccccc2)CC1,"inconclusive [inhibitor, single point]",
CS(=O)(=O)N1CCN(c2ccc([N+](=O)[O-])c3cccnc23)CC1,inactive,
C=CCN1C(=O)S/C(=C/c2ccc(Sc3nc4ccccc4[nH]3)o2)C1=O,"inconclusive [inhibitor, single point]",
